Source: the supplement of paper PMC11417369
± gives the standard deviation of the averaged measurements. The list shows a part of the results.

System: PfAP2-LT AP2 domain (GST-tagged)
Test: gcPBM binding intensity (ln(normalized median fluorescence intensity)); higher = stronger DNA binding
In short: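 After 1 h on an Agilent 4 × 180k array of primer-extended double-stranded 36-bp intergenic genomic probes and negative controls, bound GST-tagged P. falciparum DNA-binding domains were detected with Alexa488 anti-GST antibody and scanned at 488 nm. The domains had been expressed in E. coli, and binding took place in 1× PBS with 1% milk, 0.2 mg/ml BSA, 0.5% salmon testes DNA and 0.03% Triton X-100. Binding intensity is the highest Masliner-normalised natural-log median intensity across replicate spots of either probe orientation.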

Sequence	gcPBM binding intensity (ln)
AGTATACAGATATATACACACATATATATATATATA [CACACA_site4323]	9.935 ± 0.021
TATATATATATATGTTGTACAAAAATGTAAAATATA [XGTACX_site7761]	9.18 ± 0.12
ATACATATAAATAATTGTACTATTAAAAAAGAACGT [XGTACX_site3751]	9.03 ± 0.35
TGTTTTTAATTTCGCACACACCTTGTGGAAAAAAAA [CACACA_site4482]	8.88 ± 0.38
ATATATATATTTGTATGTACATATCATATTGTGTGT [XGTACX_site1580]	9.56 ± 0.35
ATACGTGGGCAAAAAGTGCATATAATCAAAAAAAAA [GTGCAC_site9961]	8.98 ± 0.64
AAGATATTTGAATATACACACGATTTAAATTTAATA [CACACA_site3866]	8.7 ± 0.4
GTATAACTTTTGCGCGTACACACATTTATCCTCTTT [CACACA_site208]	9.68 ± 0.47
TTTCTTTTTTTATAATCCACATTGGGAAAATCAAAA [TGCATGCA_negctrl_site159]	8.12 ± 0.45
ACGTATAATATGTACACACACATATATACAAAAAAA [CACACA_site917]	9.45 ± 0.42
TAGAATATCCCCTACACACCCAAATAATTTACAAAT [CACACA_site4825]	9.3 ± 0.35
AAAGTTGTTACGAACATACACACGAACATACTCACG [CACACA_site604]	9.12 ± 0.37
TTGAAATATACGTAAGTAAATTTCATTTGGTTGTGT [XGTACX_negctrl_site600]	8.77 ± 0.47
CATATATTATTATATGCACACATGAAAATATACAAA [CACACA_site2795]	8.97 ± 0.33
AAAATATTTATTACTTCACACATTATTGTATTTATA [CACACA_site5082]	8.88 ± 0.4
GTATTATATATATAGGTGCATATATATATATAAATA [GTGCAC_site9787]	8.99 ± 0.4
AAATATAAAGGATTAATATTATATATATATATATAT [XGTACX_negctrl_site211]	9.095 ± 0.021
GTTTGGTGGTGTTTTGGTACGTACGGGGGGGTATGT [XGTACX_site1983]	10.9 ± 0.18
TTTTTTTTTTTTTATTGTACTTATTTTTTTATGTTT [XGTACX_site7725]	8.71 ± 0.52
ATATTTTCTTTAAATTGTACATATTGTGATACAAAA [XGTACX_site5886]	8.4 ± 0.24
TATGTATTTTTATGCACACATGCGTGGCTTATATAA [CACACA_site387]	9.09 ± 0.39
ATTTTTTTTTTTTTTTTTTTTTTGTTTATACAAAAT [CACACA_negctrl_site1241]	8.43 ± 0.47

Sequence	gcPBM binding intensity (ln)
TATATACATACATGTAGTACCTAATTCGGTCCCGTA [XGTACX_site2702]	8.91 ± 0.45
TTTCATTTAGCTTTTACACACTATATATTATTGATT [CACACA_site16]	8.99 ± 0.47
TATATGTGTCTACAGGTGCATATATCATATATTGCT	8.88 ± 0.38
ACACATACATATACATACACATTGTTTTCATGCATC [XGTACX_negctrl_site126]	9.2 ± 0.39
TATAAATATTTATACACACACATATATTTATATATC [CACACA_site6366]	9.24 ± 0.35
TAAATAAATTTATACACACACACACGGATATAAATA [CACACA_site6532]	9.82 ± 0.071
AATCAAAATTCATTAACACACAATTTTAATATTCTT [CACACA_site5178]	8.64 ± 0.45
TATTTTTATAAGAGCATGCACTGTTTAAAATGGTAT	8.55 ± 0.35
TTTTTTAAAATATGGACACACATATATATATATGTA [CACACA_site2784]	8.68 ± 0.37
TTTTGATATAAAAAAAGTACATTAATAATATTAATT [XGTACX_site4248]	8.31 ± 0.38
CAGTATTCTTCTATATGTACTTATTTAAATATTCTT [XGTACX_site7555]	8.77 ± 0.47
TAAATAATAATAAATGTGCACAGGTATTAACAAAAA [GTGCAC_site9988]	9.08 ± 0.54
ATGATATGGATAAATACACACAATAAAATAATGTCT [CACACA_site6786]	9.12 ± 0.4
TTTTAACAAAACAAAACAAAATAATATAAAGATAAC [TGCATGCA_negctrl_site154]	8.74 ± 0.4
TTTATTTATTTATGTTGTACAAGTTTATACTGGAAT [XGTACX_site6479]	8.75 ± 0.34
TTTTTTTTTTTTTTTTTTTGATTCTTATAAAAATTT [GTGCAC_negctrl_site240]	8.09 ± 0.33
AGGTCACATTTGTCCTCACACATAGATAAATATATA [CACACA_site5460]	8.71 ± 0.44
ATAATTTGATCAATTTTTCATTTTTCATTTTTTTAA [CACACA_negctrl_site1252]	8.54 ± 0.36
GTCAAAAATAATATATGTACTTATAATAGATAAATG [XGTACX_site7755]	8.7 ± 0.45
AATTAGCATTAAAAATGTACAAAAGAAAAAAATATA [XGTACX_site3816]	8.76 ± 0.61
TTAACATATGACATTTTTTCACCCTTCCTTTATTTT [CACACA_negctrl_site1192]	8.74 ± 0.57
ATAAAATCATTCAATGGTACAGAAATACAAAATGTA [XGTACX_site6739]	8.84 ± 0.4

Sequence	gcPBM binding intensity (ln)
TATGTATAAAAATATTGTACATATTATATATATATA [XGTACX_site2947]	8.71 ± 0.26
TAAAATTTAAAAAGGTGTACACTATAAATTAAAATA [XGTACX_site2081]	8.68 ± 0.62
AGAAAGAATGAAAAATGTACATATATGTAATAGCTA [XGTACX_site364]	9.24 ± 0.4
CACACGTATATATATACACACTAAAATACCCAGACA [CACACA_site6142]	9.26 ± 0.42
TATTTTTTTACATATTGTACATAATATAAAACTTAC [XGTACX_site8273]	8.8 ± 0.47
ATTTTTTCATATTCTACACACGTGAACAAATGTGTC [CACACA_site3007]	9.25 ± 0.42
ATATAATAGAAGTGTACACACATATTTATGGGTGTA [CACACA_site5686]	9.12 ± 0.45
AATATTTTGTTATTTATTTAATCTAATATTATGATA [GTGCAC_negctrl_site258]	8.53 ± 0.4
TTTTTAGTTAATTAAACACACAAAAAAAAAAATAAA [CACACA_site3930]	8.46 ± 0.49
AATATTTTTATATATATACACACTTACATATATATA [CACACA_site3609]	8.91 ± 0.4
ATAATATTGTGGTATACACACCTTACAAAAAGGTAC [CACACA_site5582]	8.96 ± 0.42
TTTTCTAAAAAAAGTTGTACATCTTATTTATATTAT [XGTACX_site295]	8.59 ± 0.51
AAAAAATAAAAAAATAAAAAATAAAAAATAAAAAAT [TGCATGCA_negctrl_site90]	8.54 ± 0.56
TATAAAAATAAATAAATAAATAAATAAATAAATAAA [TGCATGCA_negctrl_site310]	8.44 ± 0.54
AAAAATTACCCATCCATACACACATATTTTTTTTAA [CACACA_site2190]	9.04 ± 0.19
ATGTAAGACAAAAAGGGTACATAATGCGTATGTATT [XGTACX_site4666]	9.25 ± 0.47
GTATATAATTATATATGTACTAAATAAATATTTTTA [XGTACX_site6062]	8.49 ± 0.43
ATTAAAATTTGTTAAAGTACTTAATAAAAATTTTTC [XGTACX_site1959]	8.26 ± 0.4
TATAAATCTATAAATGCACACAAGGGAAGAAAAACG [CACACA_site2965]	9.32 ± 0.56
CAAACAATTAAACAAACACACATATACAAGTATATA [CACACA_site8639]	9.03 ± 0.44
TATTATTCCAAGAAAAAAAAAAATAAAAAAAAAAAA [CACACA_negctrl_site1424]	8.15 ± 0.57
AAAGAACAAATAAAACATAAAATAATATATATAGAT [CACACA_negctrl_site1764]	8.91 ± 0.42

Sequence	gcPBM binding intensity (ln)
TATATATTATATATGTGTACTCACTAACAAAAATTA [XGTACX_site6285]	8.48 ± 0.43
AGGTGAATATTTTTTACACACATAAAAAAAATATAT [CACACA_site57]	8.99 ± 0.45
TTTAAGATTTTGTAATGTACATATATACATATATAT [XGTACX_site399]	8.86 ± 0.39
AAATTATATAAAGGAACACACATTTTATTTTATTTT [CACACA_site1500]	8.64 ± 0.44
TATATTTTTATAATAACACACGATATATGTTTAGGA [CACACA_site1283]	8.57 ± 0.44
AATGACTACATAATAGTGCAATATTAAAGAAAATTA	8.79 ± 0.49
TGTATATCATAAGATGGTACACGTGTGTGCGTATGC [XGTACX_site2255]	9.47 ± 0.35
ATTCTTAAAAAAAAATGTACACATGAACAATATGTA [XGTACX_site362]	8.59 ± 0.44
AATATGACGTAGTGGTGTACACACATGGTACCTTTA [XGTACX_site3147]	9.3 ± 0.44
AAAAGATAATTATGCACACACACACCCCCACCCAAC [CACACA_site2570]	10.38 ± 0.064
TATAGAATAATCTATAAACACACAAACACAACAAAA [CACACA_site9374]	9.23 ± 0.33
TTAGAACTATTTTATACATGCAGTTATTTAATACTT [TGCATGCA_site1039]	8.68 ± 0.39
TTATAAATATAATTTTGTACATATATATATATATAC [XGTACX_site5064]	8.78 ± 0.45
AATGGAAATTTTTCTTGTACACATATATGACATGTT [XGTACX_site1691]	8.86 ± 0.47
TTTTTTTTTACTGCATGTACTTGATGTAAATAAATT [XGTACX_site3045]	8.74 ± 0.45
AAAAAAATAATCATCACACACGGAGAATGTCCAATA [CACACA_site5305]	9.35 ± 0.22
TATTTTTTTTTATTTTTTTTTATTTTGTTTTTTTAT [TGCATGCA_negctrl_site315]	8.54 ± 0.62
ATTAAAATATAAGTCACACATATATATATATATATA [CACACA_site6145]	9.68 ± 0.057
ATATATTTTCCTTCAAGTACACATATAAATGTGTAT [XGTACX_site6633]	8.9 ± 0.4
ACATATATTTTTTTTTGTACATATAAATATATATAT [XGTACX_site6491]	8.78 ± 0.4
AATATAATAATATTTTGTACATATCCTATGTATGAG [XGTACX_site8601]	8.76 ± 0.35
AACGTAAAACATATCTATCAAAATAAATCATTAATC [TGCATGCA_negctrl_site68]	8.79 ± 0.41
